Experimental data taken from PubChem BioAssay AID504832 (National Center for Advancing Translational Sciences (NCATS), 2011).
Among all 310,000 compounds or so, about 18,000 (5.8%) were called active. The shares of active, inactive and inconclusive entries below differ from those in the screen. Calls follow the shape of the dose curve; as a rule, active = well fitted inhibition curve with a large enough effect; inconclusive = small, poorly fitted or top-dose-only effect, or another doubt; inactive = no such curve, though single readings can be large or run the other way. No potency is given beside an inconclusive call; the fits are too rough.

experiment: Primary qHTS for delayed death inhibitors of the malarial parasite plastid, 48 hour incubation; details: P. falciparum luciferase growth in erythrocytes; series mostly up to 28.7 µM
Summary of the method: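 In quantitative HTS format, infected erythrocytes bearing luciferase-reporter parasites were treated for a single generation at 37 C. Luminescence after adding detection reagent served as the growth measure.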
Potency is read from the fitted curve at half-maximal effect; tags tell the direction and shape of the fitted curve.

| Compound | Potency |
| --- | --- |
| OCCN1CCN(c2ncnc3c2c(-c2ccccc2)cn3-c2ccc(Br)cc2)CC1 | inconclusive [inhibitor, partial curve] |
| O=C(CSc1nnnn1C1CC1)Nc1cccc(S(=O)(=O)N2CCCC2)c1 | inconclusive [inhibitor, single point] |
| CCCCNC(=O)C1CCN(Cc2ccc(OCc3ccccc3)cc2)CC1 | inactive |
| COc1ccccc1C(=O)C1CCCN(Cc2cn[nH]c2C2CCCCC2)C1 (stereo not drawn) | inconclusive [inhibitor, single point] |
| CC(C)CN1C(=O)NC2(CCCc3ccccc32)C1=O (stereo not drawn) | inactive |
| COc1ccc(S(=O)(=O)N2CCCC2CNC(=O)C(=O)NCc2ccc(C)cc2)cc1 (stereo not drawn) | inconclusive [inhibitor, single point] |
| CC(NC(=O)COc1ccc(-c2nnco2)cc1)c1ccc(Cl)cc1Cl (stereo not drawn) | inconclusive [inhibitor, single point] |
| Cc1ccc(C(=O)N(C)CC(=O)Nc2ccc(F)c(F)c2F)o1 | inactive |
| COc1cccc(C2Cc3ccccc3C(=O)O2)c1 (stereo not drawn) | inactive |
| O=C(CSCc1ccc(Cl)cc1)Nc1ccc(S(=O)(=O)N2CCCCCC2)cc1 | inconclusive [inhibitor, partial curve, poor fit] |
| COc1ccc(CCNc2cc(N3CCN(C(=O)c4ccccc4F)CC3)ccc2[N+](=O)[O-])cc1OC | inconclusive [inhibitor, full curve, poor fit] |
| Cc1noc(C)c1COc1ccccc1C(=O)NC(C)c1ccc(Cl)cc1 (stereo not drawn) | active: 13.1 µM |
| COc1ccc(-c2nnc(SCC(=O)N3CCCC3)o2)c(OC)c1 | inactive |
| Cc1ccc(C)c(NS(=O)(=O)c2ccc3[nH]c(=O)oc3c2)c1 | inactive |
| Cc1c(NC(=O)CN2C(=O)NC3(CCC(C)CC3)C2=O)c(=O)n(-c2ccccc2)n1C (stereo not drawn) | inactive |
| CCOC(=O)C(NC(=O)CC)(Nc1nc2c(s1)CCCC2)C(F)(F)F (stereo not drawn) | inconclusive [inhibitor, single point] |
| Cc1cccc2cc(C(c3nnnn3C(C)(C)C)N3CCN(C(=O)c4ccco4)CC3)c(=O)[nH]c12 (stereo not drawn) | active: 3.29 µM |
| Cc1cc(C(=O)NC(=S)Nc2ccccc2N2CCOCC2)ccc1[N+](=O)[O-] | inconclusive [inhibitor, single point] |
| COc1ccc(N(C)S(=O)(=O)c2cccc(C(=O)NC3CCCC(C)C3C)c2)cc1 (stereo not drawn) | inconclusive [inhibitor, single point] |
| CCN(CC)C(=O)c1oc2ccc(S(=O)(=O)N3CC(C)CC(C)C3)cc2c1C (stereo not drawn) | inconclusive [inhibitor, single point] |
| COc1cc(/C=C/C(=O)Nc2cc(S(=O)(=O)N3CCOCC3)ccc2N2CCCC2)cc(OC)c1OC | inconclusive [inhibitor, single point] |
| O=C(/C=C/c1ccc2c(c1)OCO2)c1c(O)n(CCc2ccccc2)c(=O)[nH]c1=O | inconclusive [inhibitor, single point] |

| Compound | Potency |
| --- | --- |
| NC(=O)CC(NC(=O)Cc1cccc2ccccc12)c1ccc(NC2CC3CCC2C3)c([N+](=O)[O-])c1 (stereo not drawn) | inactive |
| CCN(C(=O)Cn1c(=O)oc2ccccc21)c1cccc(C(F)(F)F)c1 | inconclusive [inhibitor, single point] |
| O=C(CNC(=S)N(Cc1ccccc1)Cc1ccccc1F)NCCc1ccccc1 | inconclusive [inhibitor, single point] |
| Cc1ccccc1C(=O)NNC(=S)NC(=O)c1cccnc1 | inconclusive [inhibitor, single point] |
| O=S(=O)(NCc1ccccn1)C(F)(F)F | inconclusive [inhibitor, full curve, poor fit] |
| N#Cc1nc(Cc2cccc3ccccc23)oc1NCc1ccc(F)cc1 | inconclusive [inhibitor, partial curve] |
| CC(C)(Oc1ccc(Cl)cc1)C(=O)Nc1ccc2oc(-c3ccncc3)nc2c1 | inconclusive [inhibitor, single point] |
| O=C(Nc1cc(Cl)cc(Cl)c1)N1CCCN(Cc2ccccc2)CC1 | inconclusive [inhibitor, single point] |
| O=C1COc2ccc(S(=O)(=O)N3CCCCCC3)cc2N1 | inactive |
| Cc1nc(NC2=NCN(C3CCCCC3C)CN2)nc2ccccc12 (stereo not drawn) | active: 13.1 µM |
| COc1ccc(NC(=O)C2CCC(C(C)(C)C)CC2)cc1S(=O)(=O)N1CCCCC1 (stereo not drawn) | inactive |
| COc1cc(C(=O)Nc2nccs2)ccc1OCc1c(C)noc1C | inconclusive [inhibitor, full curve, poor fit] |
| C=CCn1c2ccccc2c2nnc(SCC(=O)Nc3c(C)n(C)n(-c4ccccc4)c3=O)nc21 | inconclusive [inhibitor, single point] |
| COc1cc(C(O)P(=O)(OCCC(C)C)c2ccc(N(C)C)cc2)cc(OC)c1OC (stereo not drawn) | inactive |
| COc1ccc(-c2nnc(SCC(=O)c3ccc(C)o3)o2)cc1 | inactive |
| CCN(CC(=O)Nc1c(F)cccc1F)C(=O)c1ccc(C2SCCS2)cc1 | inconclusive [inhibitor, single point] |
| COc1ccc(C(=O)Nc2ccc(S(=O)(=O)N3CCOCC3)cc2)cc1[N+](=O)[O-] | inconclusive [inhibitor, single point] |
| COc1ccc(-c2cc(C)no2)cc1S(=O)(=O)NCC(C)c1ccccc1 (stereo not drawn) | inconclusive [inhibitor, single point] |
| O=C(COc1ccccc1[N+](=O)[O-])c1ccccc1 | inconclusive [inhibitor, single point] |
| OC(c1ccccc1)(C1CCCCC1)C(CN1CCOCC1)c1ccccc1 (stereo not drawn) | active: 2.94 µM |
| Cc1ccc(-n2nnnc2SCC(=O)c2cc(C)n(-c3cc(C)on3)c2C)c(C)c1 | inconclusive [inhibitor, partial curve, poor fit] |
